According to PMC4336329 (PLoS ONE, 2015):
Hit rate of the full screen: of about 310,000 compounds, about 2,200 (0.71%) showed an effect of 50% or more. The effect is printed as a negative number. The list shows a part of the results.

The compounds below were run against human ether-à-go-go-related gene (hERG) potassium channel (human, UniProt Q12809) (assay: primary screen, population patch clamp on CHO cells stably expressing hERG).
human ether-à-go-go-related gene (hERG) potassium channel, sequence (Q12809 whole entry, looked up): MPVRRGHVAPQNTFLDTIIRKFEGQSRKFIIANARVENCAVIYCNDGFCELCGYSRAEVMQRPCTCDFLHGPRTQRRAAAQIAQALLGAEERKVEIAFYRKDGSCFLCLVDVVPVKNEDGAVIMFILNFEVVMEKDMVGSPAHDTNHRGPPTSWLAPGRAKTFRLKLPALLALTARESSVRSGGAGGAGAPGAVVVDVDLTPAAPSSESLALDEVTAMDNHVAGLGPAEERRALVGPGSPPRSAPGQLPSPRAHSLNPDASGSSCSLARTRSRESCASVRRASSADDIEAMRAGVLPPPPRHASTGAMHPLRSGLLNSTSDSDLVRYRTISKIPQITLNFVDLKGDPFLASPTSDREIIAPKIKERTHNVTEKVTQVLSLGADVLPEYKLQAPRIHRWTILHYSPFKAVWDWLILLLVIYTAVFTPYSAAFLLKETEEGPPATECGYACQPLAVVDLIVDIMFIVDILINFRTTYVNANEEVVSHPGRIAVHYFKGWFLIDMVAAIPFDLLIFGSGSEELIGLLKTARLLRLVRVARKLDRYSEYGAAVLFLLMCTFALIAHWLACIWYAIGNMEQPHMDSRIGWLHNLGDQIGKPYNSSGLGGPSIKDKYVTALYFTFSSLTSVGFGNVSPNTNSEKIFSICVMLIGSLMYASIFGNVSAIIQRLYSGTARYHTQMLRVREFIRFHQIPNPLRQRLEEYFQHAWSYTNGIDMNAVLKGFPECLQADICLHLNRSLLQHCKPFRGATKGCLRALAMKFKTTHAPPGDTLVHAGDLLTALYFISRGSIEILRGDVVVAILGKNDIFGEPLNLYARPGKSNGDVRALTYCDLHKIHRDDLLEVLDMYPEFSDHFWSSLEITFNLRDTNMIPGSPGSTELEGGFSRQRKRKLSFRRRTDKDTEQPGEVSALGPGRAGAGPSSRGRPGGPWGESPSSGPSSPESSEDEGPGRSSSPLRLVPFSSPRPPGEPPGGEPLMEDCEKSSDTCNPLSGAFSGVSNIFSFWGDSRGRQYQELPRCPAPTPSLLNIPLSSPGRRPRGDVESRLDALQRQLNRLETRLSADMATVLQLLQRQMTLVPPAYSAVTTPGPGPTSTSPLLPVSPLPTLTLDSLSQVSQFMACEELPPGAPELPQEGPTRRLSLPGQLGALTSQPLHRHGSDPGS

Structure (SMILES)	hERG current change (%, negative = inhibition) at 1uM [%]
Cc1cc(=O)oc2cc(NC(=O)c3cccc(F)c3)ccc12	8.86
CNC(=O)NC(=O)C(OC(=O)c1cccc(S(=O)(=O)N2CCCCC2)c1)c1ccccc1 (centres unmarked)	11.5
Cc1cccc(C)c1OCC(O)CN1CCN(c2ccccn2)CC1 (centres unmarked)	-1.11
CC(C)CN(C(=O)CSc1nncn1C)C1CCS(=O)(=O)C1 (centres unmarked)	-0.893
CCSc1n[nH]c2nc3c(c(=O)n12)C1(CCCC1)Cc1ccccc1-3	17
O=C(NCc1ccc(Cl)cc1)C1CCCN(S(=O)(=O)c2cnc[nH]2)C1 (centres unmarked)	12.3
C/C(=N\NC(=O)c1cccnc1)c1ccc(Br)cc1	-0.376
Nc1ccc(Br)cc1C(=O)O	6.36
O=C(CN1C(=O)c2ccccc2C1=O)NCc1ccc(F)cc1	13.1
CC1=C(C(=O)N(C)C)C(c2cccc(Cl)c2)NC(=O)N1 (centres unmarked)	14.2
COc1ccc(C[C@@H]2CN3C(=NC[C@@H]3C)N2C[C@H](C)NC(=O)c2ccc(C)c(Br)c2)cc1	-56.4
COc1ccccc1N(CC(=O)NC1CCCC1)C(=O)c1csnn1	0.0012
COc1ccc(N2C(=O)CC(NCc3cccc(F)c3)C2=O)cc1 (centres unmarked)	7.93
COc1ccccc1C(=O)NCC(=O)OCC(=O)Nc1cccc(S(=O)(=O)N2CCCCCC2)c1	1.17
CC(=NCCO)c1c(O)n(C2CCCCC2)c(=O)[nH]c1=O	12.5
CC1(N(O)/C=C2\C=CC=CC2=O)CCCCC1=O (centres unmarked)	10.3
COC(=O)C1=NN(c2ccccc2)C2(S1)S/C(=C\c1ccccc1)C(=O)N2c1ccccc1 (centres unmarked)	10.4
COc1cc(CNCCN2CCOCC2)ccc1OCC(=O)NC(C)(C)C.Cl	12.5
COc1ccc(/C=N/NC(=O)CCCOc2ccc(Cl)cc2Cl)cc1	20.4
CCOC(=O)C1=C(N)Oc2cc(C)n(C)c(=O)c2C1c1ccncc1 (centres unmarked)	7.92
Oc1ccc(Br)cc1/C=N/Nc1nc(N2CCCCC2)nc(N2CCOCC2)n1	12.6
Cc1c(C(=O)Nc2ccc3oc(-c4cccnc4)nc3c2)oc2ccccc12	-7.02
CC(C)NCC#CCOc1ccc(Cl)cc1.O=C(O)C(=O)O	2.36

Structure (SMILES)	hERG current change (%, negative = inhibition) at 1uM [%]
CCCCOc1ccc(NC(=O)CN2CCN(Cc3ccccc3)CC2)cc1	1.72
CCOc1ncccc1C(=O)N=C1SCCN1C(=O)c1cccnc1OCC	4.84
Cc1ccc(S(=O)(=O)NNC(=O)c2sccc2-n2cccc2)cc1	2.39
Cc1ccccc1-n1nc(C)c(N=O)c1N	13.6
O=C(CCCN=C1NS(=O)(=O)c2ccccc21)Nc1ccc(Cl)cc1	8.87
O=C(OCc1ccccc1C(F)(F)F)c1cc([N+](=O)[O-])ccc1N1CCOCC1	-3.01
O=C(CSc1n[nH]c(-c2ccccc2)n1)N1CCCC1	43.4
Cc1cc(N2CCN(c3cccc(C(F)(F)F)c3)CC2)n2ncnc2n1	-5.52
C/C(Cn1nc([N+](=O)[O-])cc1C)=N\NC(=O)COc1c(Cl)cc(Cl)cc1Cl	-23.8
CCOC(=O)C1(Cc2cccc(F)c2)CCN(Cc2ccon2)CC1	7.83
COc1ccc(S(=O)(=O)Nc2cc(C)cc(C)n2)c2ccccc12	3.07
COc1ccc(OC)c(S(=O)(=O)N2CCC(C(=O)NCc3ccncc3)CC2)c1	19.2
CN(C)S(=O)(=O)c1ccc(=S)[nH]c1	14.1
O=C(CN(C(=O)c1csnn1)c1ccccc1F)NCc1ccc2c(c1)OCO2	9.07
COc1ccccc1NC(=O)COC(=O)Cc1ccc(S(=O)(=O)N2CCCCC2)s1	17.9
CCn1cc(C(=O)Nc2ccc(OC)c(OC)c2)c2cc(OC)c(OC)cc2c1=O	0.878
COc1ccc(Cn2nnnc2C(c2ccccc2OC)N2CCC(C(N)=O)CC2)cc1 (centres unmarked)	1.65
C=CCn1c(O)c(N=NC(=S)Nc2cccc(OC)c2)c2ccccc21	0.44
CCCc1[nH]nc2c1C(c1cccc(OC(=O)c3ccco3)c1)C(C#N)=C(N)O2 (centres unmarked)	13.6
O=C(Nc1cccc(-c2cn3ccccc3n2)c1)C1CC1	7.14
Cc1ccccc1Cn1c(=O)n(Cc2ccco2)c(=O)c2ccccc21	8.84
Cc1cnc(C(=O)Nc2ccc(C(=O)N3CCCCC3)cc2)cn1	5.84
CC1CCc2c(sc3nc(CN4CCOCC4)nc(NS(=O)(=O)c4cccc([N+](=O)[O-])c4)c23)C1 (centres unmarked)	4.76

Structure (SMILES)	hERG current change (%, negative = inhibition) at 1uM [%]
CCOC(=O)c1cnc2c(ccc3ccccc32)c1NCCO	-14
CSc1nncc(/C(C)=N\Nc2cccc(C)c2)n1	1.31
Cn1c(=O)oc2cc(S(=O)(=O)NCCc3ccccc3)ccc21	-3.93
O=C(Nc1nnc(C2CCCC2)s1)C1CCC1	9.77
CCNC(=S)N(CCc1ccc(OC)c(OC)c1)Cc1cc2cc(OC)ccc2[nH]c1=O	-10.1
COc1ccc(S(=O)(=O)Cc2ccc(C(=O)N3CCOCC3)o2)cc1	5.48
COc1cccc(-c2nc(CS(=O)(=O)CC(=O)Nc3cccc(C)c3C)c(C)o2)c1	14.8
CCCNC(=O)NC(=O)CSc1nc2ccccc2c(=O)n1Cc1ccncc1	7.68
CC(N=Cc1cc([N+](=O)[O-])ccc1O)c1ccccc1 (centres unmarked)	12.1
Cc1ccc2c(c1)c1nnc(SCC(=O)Nc3ccccc3C(F)(F)F)nc1n2CC(=O)O	11.6
O=C1CN(C(=O)c2ccccc2)C(c2ccccc2)c2cc(F)ccc2N1 (centres unmarked)	-17.5
Cc1ccc(C(=O)N/N=C2\CCCc3ccccc32)c(C)c1	9.68
CCC(O)(c1ccccc1)C(CN1CCOCC1)c1ccccc1.Cl (centres unmarked)	16
CC1=C(C)[N+](=O)C2(O)CCCCC2(C)N1[O-] (centres unmarked)	9.28
CC(/C=N\NC(=O)c1cccnc1)c1ccccc1 (centres unmarked)	9.96
C/C(=N\Nc1cc(C)nc(NCc2ccccc2)n1)c1cccc([N+](=O)[O-])c1	14.3
O=C(Nc1ccccc1)Nc1ccc(S(=O)(=O)N2CCCCC2)cc1	12.5
CC1CCCN(C2(O)C(=O)Nc3ccc(Br)cc32)C1 (centres unmarked)	17.6
COc1ccccc1NC(=O)N1CCCC1C(=O)NC12CC3CC(CC(C3)C1)C2 (centres unmarked)	9.74
O=C1NC(=Nc2ccccc2)CS1	12.8
CC(C)(C=O)Cc1cc(C(C)(C)C)c(O)c(C(C)(C)C)c1	10.9
Cc1csc(=O)n1CC(=O)OCC(=O)NNC(=O)c1ccccc1	7.62
CSc1ncc(CN2CCC(C(=O)Nc3cccc(-c4cscn4)c3)CC2)cn1	9.87

Structure (SMILES)	hERG current change (%, negative = inhibition) at 1uM [%]
Nc1cc(N)nc(SCC(=O)Nc2ccccc2N2CCOCC2)n1	9.81
CCOC(=O)c1cccc(OS(=O)(=O)Cc2ccccc2)c1	13.3
Cc1ccccc1-n1c(O)c(/C=N/NC(=O)c2ccccc2O)c(=O)[nH]c1=S	12.2
COc1cc(C2NC(=S)NC(C)=C2C(=O)Nc2cc(C)cc(C)c2)ccc1O (centres unmarked)	6.58
Cc1ccc(-c2nnc(COC(=O)c3cccs3)o2)cc1	-5.44
COc1ccc(S(=O)(=O)NC(CC(=O)NCc2ccco2)C(C)C)cc1 (centres unmarked)	5.58
COc1ccc(OC)c(-n2c(-c3cnccn3)n[nH]c2=S)c1	11.7
CCc1c(C)sc(NC(=O)c2cc(C)no2)c1C#N	13.9
CC(C)N(C(=O)CSc1nnc(CSc2ncccn2)n1C)C(C)C	13.7
CCCC(=O)Nc1ccc(NC(=O)C2CC2)cn1	2.25
O=C(NCc1nc2ccccc2[nH]1)C1=C[C@@H](c2csc3ccccc23)C[C@@H](OCCCCO)O1	5.15
O=C(Cn1cncn1)N/N=C/c1cc([N+](=O)[O-])ccc1O	5.96
COc1ccc(-c2cc(C(=O)O)c3sc(N4CCCCC4)nc3n2)cc1OC	1.33
O=C(Nc1ccc(Cl)cc1)c1ccc(OC2CSC2)cc1	13.1
COc1ccc(CCNC(=O)/C=C/c2ccc(C)cc2)cc1OC	3.86
O=C(Cn1ccc2ccccc2c1=O)NCCC(=O)N1CCN(C2CCCCC2)CC1	3.99
CN(CC(=O)Nc1c(Cl)cccc1Cl)C(=O)Cc1cccs1	-2.47
Clc1cc(Br)ccc1OCCOCCN1CCCC1.O=C(O)C(=O)O	-23
CCOC(=O)N1CCN(C(=S)NC(=O)c2cc(Br)ccc2Cl)CC1	6.42
CCOC(=O)c1cnn(CCOC(=O)c2ccccc2F)c1NC(=O)c1ccccc1F	0.0433
